Assay results as given in patent publication US11492385B2, “Long-acting co-agonists of the glucagon and GLP-1 receptors” (Merck Sharp & Dohme Corp., priority 2015, dated 2022).
At least one peptide structure holds a part that was inferred or is arguable (an end, a ring closure or a residue). Starred links: 1 amine or outer side, 2 acyl side, 3 side chain; linkers in the order of their positions; H or OH if unused. Non-standard residues stand in square brackets, D forms with d. Residues, ends and D or L forms follow the SMILES beside them. Groups on a side chain read outwards from the residue. *: point of attachment. C18 diacid = O=C(O)CCCCCCCCCCCCCCCCC(=O)*; γGlu = O=C(O)[C@H](CCC(=O)[*:2])N[*:1]; Met(O2) = CS(=O)(=O)CC[C@H](N)C(=O)O; αMeS = C[C@](N)(CO)C(=O)O; AEEA = NCCOCCOCC(=O)O

Assays:
[1] = molecular target: T1, human GLP1R (Homo sapiens, UniProt P43220); assay: cAMP activity assay, cells expressing human GLP1R; type: cell-based; conditions: cAMP production, assay buffer with or without 20% human serum (not stated which)
T1 construct: expressed in transfected cells; kept under Blasticidin and Hygromycin selection
T1 sequence (P43220 24-463): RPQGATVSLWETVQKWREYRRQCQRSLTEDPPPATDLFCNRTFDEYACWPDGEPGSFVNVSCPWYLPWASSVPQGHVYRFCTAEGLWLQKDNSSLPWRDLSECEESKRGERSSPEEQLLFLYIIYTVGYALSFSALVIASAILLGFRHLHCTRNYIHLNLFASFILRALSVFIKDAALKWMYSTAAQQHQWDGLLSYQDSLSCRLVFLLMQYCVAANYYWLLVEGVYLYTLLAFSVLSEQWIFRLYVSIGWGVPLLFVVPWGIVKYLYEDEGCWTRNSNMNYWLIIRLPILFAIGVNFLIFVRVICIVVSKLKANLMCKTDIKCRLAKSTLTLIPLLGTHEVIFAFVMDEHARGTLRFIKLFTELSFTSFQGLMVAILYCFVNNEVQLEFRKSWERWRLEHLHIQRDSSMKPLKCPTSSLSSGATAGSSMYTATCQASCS
Procedure: (§1) Activity of the peptides at the Glucagon receptor (GCGR) and GLP-1 receptor (GLP1R) was measured in a cAMP activity assay. Peptides were dissolved in 100% DMSO and serially diluted to generate 10 point titrations. The peptide solutions were then transferred into 384-well assay plates (150 nL/well). […] Production of cAMP was determined using […] kits (DiscoverX) following manufacturer protocol. The plates were incubated for overnight at room temperature in the dark. Luminescence was measured using an EnVision Multilabel plate reader (Perkin Elmer). Native GLP-1 and Glucagon (Bachem) are used as control peptides. EC50 values were calculated using uses a 4 parameter logistic fit based on the Levenberg-Marquardt algorithm.

[2] = molecular target: T2, human GCGR (Homo sapiens, UniProt P47871); assay: cAMP activity assay, cells expressing human GCGR; type: cell-based; conditions: for EC50: cAMP production, cells expressing human GCGR, assay buffer with or without 20% human serum (not stated which); for hGCGR/hGLP1R (hTone): ratio of human GCGR EC50 to human GLP1R EC50
T2 construct: expressed in transfected cells; kept under Blasticidin and Hygromycin selection
T2 sequence (P47871 26-477): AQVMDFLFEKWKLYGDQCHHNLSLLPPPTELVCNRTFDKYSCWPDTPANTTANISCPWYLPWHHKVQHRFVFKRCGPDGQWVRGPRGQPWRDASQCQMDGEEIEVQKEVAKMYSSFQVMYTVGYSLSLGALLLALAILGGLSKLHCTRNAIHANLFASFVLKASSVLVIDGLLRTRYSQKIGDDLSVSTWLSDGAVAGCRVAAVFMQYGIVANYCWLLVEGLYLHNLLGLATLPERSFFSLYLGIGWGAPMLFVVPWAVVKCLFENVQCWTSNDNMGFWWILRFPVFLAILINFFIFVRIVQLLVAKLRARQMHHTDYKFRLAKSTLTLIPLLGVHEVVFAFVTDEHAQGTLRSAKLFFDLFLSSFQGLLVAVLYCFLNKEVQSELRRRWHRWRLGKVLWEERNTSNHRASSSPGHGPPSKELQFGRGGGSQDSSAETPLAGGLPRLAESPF
Procedure: as §1

SMILES	EC50 [1]	EC50 [2]	hGCGR/hGLP1R (hTone) [2]
CC(C)C[C@H](NC(=O)[C@H](Cc1ccc(O)cc1)NC(=O)[C@H](CCCCN)NC(=O)[C@H](CO)NC(=O)[C@H](Cc1ccc(O)cc1)NC(=O)[C@H](CC(=O)O)NC(=O)[C@H](CO)NC(=O)[C@@H](NC(=O)[C@H](Cc1ccccc1)NC(=O)[C@@H](NC(=O)CNC(=O)[C@H](CCC(N)=O)NC(=O)[C@](C)(CO)NC(=O)[C@@H](N)Cc1c[nH]cn1)[C@@H](C)O)[C@@H](C)O)C(=O)N[C@@H](CC(=O)O)C(=O)N[C@@H](C)C(=O)N[C@@H](CCCNC(=N)N)C(=O)N[C@@H](C)C(=O)N[C@@H](C)C(=O)N[C@@H](CCC(N)=O)C(=O)N[C@@H](CCCCNC(=O)COCCOCCNC(=O)COCCOCCNC(=O)CC[C@H](NC(=O)CCCCCCCCCCCCCCCCC(=O)O)C(=O)O)C(=O)N[C@@H](Cc1ccccc1)C(=O)N[C@H](C(=O)N[C@@H](CCC(N)=O)C(=O)N[C@@H](Cc1c[nH]c2ccccc12)C(=O)N[C@@H](CC(C)C)C(=O)N[C@@H](CCS(C)(=O)=O)C(=O)N[C@@H](CC(=O)O)C(=O)N[C@H](C(N)=O)[C@@H](C)O)C(C)C [compound 72] (H-H[αMeS]QGTFTSDYSKYLDARAAQK([AEEA-AEEA-γGlu-C18 diacid])FVQWL[Met(O2)]DT-NH2; N-terminus assumed)	0.31 nM	0.25 nM	0.8
CC(C)C[C@H](NC(=O)[C@H](Cc1ccc(O)cc1)NC(=O)[C@H](CCCCN)NC(=O)[C@H](CO)NC(=O)[C@H](Cc1ccc(O)cc1)NC(=O)[C@H](CC(=O)O)NC(=O)[C@H](CO)NC(=O)[C@@H](NC(=O)[C@H](Cc1ccccc1)NC(=O)[C@@H](NC(=O)CNC(=O)[C@H](CCC(N)=O)NC(=O)[C@](C)(CO)NC(=O)[C@@H](N)Cc1c[nH]cn1)[C@@H](C)O)[C@@H](C)O)C(=O)N[C@@H](CC(=O)O)C(=O)N[C@@H](C)C(=O)N[C@@H](CCCNC(=N)N)C(=O)N[C@@H](C)C(=O)N[C@@H](C)C(=O)N[C@@H](CCCCNC(=O)COCCOCCNC(=O)COCCOCCNC(=O)CC[C@H](NC(=O)CCCCCCCCCCCCCCCCC(=O)O)C(=O)O)C(=O)N[C@@H](CC(=O)O)C(=O)N[C@@H](Cc1ccccc1)C(=O)N[C@H](C(=O)N[C@@H](CCC(N)=O)C(=O)N[C@@H](Cc1c[nH]c2ccccc12)C(=O)N[C@@H](CC(C)C)C(=O)N[C@@H](CCS(C)(=O)=O)C(=O)N[C@@H](CC(=O)O)C(=O)N[C@H](C(N)=O)[C@@H](C)O)C(C)C [compound 73] (H-H[αMeS]QGTFTSDYSKYLDARAAK([AEEA-AEEA-γGlu-C18 diacid])DFVQWL[Met(O2)]DT-NH2; N-terminus assumed)	0.44 nM	0.91 nM	2.1
